Measured values taken from the RNAGym collection of RNA variant scans (doi:10.1093/nar/gkz1192).
The source gives no read counts; variants with many changes may rest on few reads.

B1: CPEB3 Ribozyme (parent)
chain: UAACAGGGGGCCACAGCAGAAGCGUUCACGUCGCAGCCCCUGUCAGAUUCUGGUGAAUCUGCGAAUUCUGCUGUAUAUCUC

Variants of: B1
Assay: self-cleavage, relative activity (ratio to wild type); higher = more cleavage; in vitro, sequencing
How it was run: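 Relative activity compares each variant's cleaved/total read fraction with that of the unmutated ribozyme. To get these fractions, barcoded CPEB3 ribozyme libraries from rounds of error-prone PCR were transcribed with T7 RNA polymerase for 5 hours at 37°C and then given 15 min of DNase I treatment before EDTA was added. The RNAs were reverse transcribed with template switching and sequenced on Illumina, and DNA sequencing linked barcodes to variants. A minimum of 5 reads applied, and three batches were averaged.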
For G8A A13C U31C U51A U76C, the self-cleavage was 0.08.
For G8A A13U A15C U49A U51A U60C, the self-cleavage was 0.05.
For G7C A20G U58C, the self-cleavage was 0.29.
G7U A21G U41C A56G U80C showed a self-cleavage of 0.31.
Variant G8A A13U A15U A35G U72A A75G has a self-cleavage of 0.4.
In the case of G7U G30U U66C, the self-cleavage is reported as 0.15.
G7U A20G U78C U80C showed a self-cleavage of 0.06.
For G8A A13G A21G A64G, the self-cleavage was 0.07.
For G7C G8C U43C, the self-cleavage was 0.25.
In the case of G7C U41A U54C A56G, the self-cleavage is reported as 0.14.
G8A A13G A20G U31G U43C A64G showed a self-cleavage of 0.05.
G7U A28G U48C U51C A56G U78C gave a self-cleavage of 0.04.
G7U A35G C44U A47G gave a self-cleavage of 0.21.
G7U G19C A56U U60C A77G showed a self-cleavage of 0.04.
Variant G7U C40A U41A U78C has a self-cleavage of 0.09.
G8A A15G A28G U54G A57G U72C showed a self-cleavage of 0.04.
In the case of G7U G19C U31C U49C U54C A65G U72C, the self-cleavage is reported as 0.11.
G7C U26A A56U A57G A64U U80C showed a self-cleavage of 0.8.
Variant G7C A35G U78C has a self-cleavage of 0.22.
Work on G8A A15U U41C G55U yielded a self-cleavage of 0.09.
Variant G8A A15U A21U A45U has a self-cleavage of 0.24.
Variant G7U C11U U67C A75G has a self-cleavage of 0.05.
Work on G7C U25A A35G U54A A64U A65G C79U yielded a self-cleavage of 0.06.
Variant G7C U25C U31C U41C has a self-cleavage of 0.06.
Work on G7U C14U A21G A45U U54A A57G U67C yielded a self-cleavage of 0.09.
Work on G7U A56U U72A yielded a self-cleavage of 0.37.
For G8A A15C U31A U66A U72C, the self-cleavage was 0.04.
With G7A U43C U60A U80C the self-cleavage was 0.1.
In the case of G7U U48A U72C, the self-cleavage is reported as 0.16.
In the case of G7U A28U U51A, the self-cleavage is reported as 0.19.
G7U A45U U67A U80A gave a self-cleavage of 0.18.
With G7U A20G U25C C40U A65G C79U the self-cleavage was 0.06.
With G7U G10C A18G the self-cleavage was 0.2.
G7U U26C A45G A57C U80C showed a self-cleavage of 0.12.
With G7U U49C U72A the self-cleavage was 0.06.
In the case of G7U U25A U26C U41C, the self-cleavage is reported as 0.06.
G7C A47G A57G U69C G73A showed a self-cleavage of 0.06.
In the case of G7U U41C A57G, the self-cleavage is reported as 0.42.
Variant G7C A15U U67G U69C has a self-cleavage of 0.08.
In the case of G7C A15U A65G A77G, the self-cleavage is reported as 0.16.
Work on G7U A21G U49C U69C U72C yielded a self-cleavage of 0.18.
With G7C A20U U26C C29U U41C U60C the self-cleavage was 0.03.
G7C G8U U31G A47U U51C U54C showed a self-cleavage of 0.04.
G8A A15U U31G C38A U49C showed a self-cleavage of 0.03.
Work on G7C G63C A65G U80C yielded a self-cleavage of 0.12.
Work on G7C C23G U25C U31A U80C yielded a self-cleavage of 0.05.
For G7U A21U U41A U43C, the self-cleavage was 0.16.
Work on G8A A15G U54C A56G yielded a self-cleavage of 0.08.
G7U A15C A56G A57G U76C gave a self-cleavage of 0.04.
Variant G7C A13G G30U U58C has a self-cleavage of 0.14.
G8A A13G U26C U31C gave a self-cleavage of 0.05.
For G7U A64U A65G U67C, the self-cleavage was 0.02.
Work on G7U U60A U72C yielded a self-cleavage of 0.19.
G7U G19U U54C gave a self-cleavage of 0.05.
G7A U43A U67A showed a self-cleavage of 0.24.
Work on G7U G8U U26A yielded a self-cleavage of 0.07.
For G7U A20G U72C U74C, the self-cleavage was 0.07.
With G7C G9A A75G the self-cleavage was 0.23.
G8A A13G C37U A45C gave a self-cleavage of 0.07.
With G7U A45U U72C G73A the self-cleavage was 0.09.
Work on G8A A13U A28G U43C G53U C71A yielded a self-cleavage of 0.04.
In the case of G7U U66A A75G, the self-cleavage is reported as 0.14.
In the case of G7C A13U U58C, the self-cleavage is reported as 0.07.
Work on G7U G30U U58C yielded a self-cleavage of 0.04.
G7C G9A A28G U43A A45G showed a self-cleavage of 0.05.
In the case of G7C A21G A28G G30C C44U U74A, the self-cleavage is reported as 0.05.
Work on G7C U48C U67A yielded a self-cleavage of 0.22.
In the case of G7C A15G U31C G46U A57U U69A U80G, the self-cleavage is reported as 0.11.
In the case of G7C A18G U25A U31C U78C, the self-cleavage is reported as 0.28.
With G8A A15G U72A U76C the self-cleavage was 0.26.
G7U A35G U60A U74C showed a self-cleavage of 0.22.
For G7U U49C A57U G73C, the self-cleavage was 0.2.
Variant G7U A18U G46A U51C U69A C71U U78C has a self-cleavage of 0.07.
G8A A13U U60C gave a self-cleavage of 0.2.
Variant G7C A21G U25C has a self-cleavage of 0.64.
In the case of G7U A56G U72A, the self-cleavage is reported as 0.15.
Variant G8A A13U A35G C62G A77U has a self-cleavage of 0.08.
Variant G7U C14U U54A A57G U67C U72A has a self-cleavage of 0.09.
With G7U A15G U48A U72C the self-cleavage was 0.26.
Work on G7C C32A U67C yielded a self-cleavage of 0.31.
G7C A13U A35C U80C showed a self-cleavage of 0.35.
G7C A13U U31A showed a self-cleavage of 0.1.
In the case of G7U A18U U41C U58A A65G, the self-cleavage is reported as 0.04.
G8A A15U U49C A56U showed a self-cleavage of 0.05.
